Experiment [1] concerns HSkMC (human skeletal muscle cells). In words: cytotoxicity call (relative viability < 0.9). Conditions: 10 µM.
Experiment [2] relates to S. aureus RN4220. In words: growth inhibition call (relative growth <= 0.2). Conditions: 50 µM.

This is one part of the list.

Regarding `COc1ccc(NC(=O)N(C)C[C@H]2Oc3ncc(C#CC(C)C)cc3C(=O)N([C@H](C)CO)C[C@H]2C)cc1`, the cytotoxicity call in experiment [1] was “inactive”. In addition, the growth inhibition call in experiment [2] is “inactive”.

For `COc1ccc(S(=O)(=O)N(C)C[C@H]2Oc3c(NC(=O)Nc4cccc5ccccc45)cccc3C(=O)N([C@H](C)CO)C[C@H]2C)cc1`, in experiment [1], the cytotoxicity call is “inactive”. Further, the growth inhibition call in experiment [2] was “inactive”.

Consider `Cc1ccc(S(=O)(=O)N(C)C[C@H]2OCCCC[C@H](C)Oc3ccc(NC(=O)NC4CCCCC4)cc3C(=O)N([C@H](C)CO)C[C@H]2C)cc1`, for which the cytotoxicity call in experiment [1] is “inactive”. Further, the growth inhibition call in experiment [2] is “inactive”.

For `CC(C)(C)S(=O)N1Cc2cc(C(=O)Nc3ccc(-c4ccccc4)cc3)nc(-c3cccc(C#CCC4CCCC4)c3)c2[C@@H]1CCO` (some centres not stated), in experiment [1], the cytotoxicity call is “inactive”. Besides, in experiment [2], the growth inhibition call was “inactive”.

For the molecule `CCC(=O)Nc1ccc(Cl)cc1`, the cytotoxicity call in experiment [1] is “inactive”. The growth inhibition call in experiment [2] was “inactive”.

Regarding `C[C@@H]1CN([C@H](C)CO)C(=O)c2cc(NS(=O)(=O)c3cn(C)cn3)ccc2O[C@H]1CN(C)C(=O)NC1CCCCC1`, in experiment [1], the cytotoxicity call was “inactive”. Moreover, the growth inhibition call in experiment [2] is “inactive”.

As for `C[C@H](CO)N1C[C@H](C)[C@@H](CN(C)Cc2ccc(Oc3ccccc3)cc2)Oc2ccc(NC(=O)CCCN(C)C)cc2C1=O`, the cytotoxicity call in experiment [1] was “inactive”. Further, the growth inhibition call in experiment [2] was “inactive”.

Turning to `Cc1noc(C)c1NC(=O)Nc1ccc2c(c1)C(=O)N([C@H](C)CO)C[C@@H](C)[C@@H](CN(C)Cc1ccc(C(F)(F)F)cc1)OCCCC[C@@H](C)O2`, the cytotoxicity call in experiment [1] is “inactive”. Further, in experiment [2], the growth inhibition call was “inactive”.

For `CCCCC(=O)C1CCC(c2ccc(Cl)cc2)CC1` (configuration not stated), in experiment [1], the cytotoxicity call is “inactive”. Further, the growth inhibition call in experiment [2] is “inactive”.

Regarding `Cc1n[nH]c(C)c1N`, the cytotoxicity call in experiment [1] is “inactive”. The growth inhibition call in experiment [2] was “inactive”.

Consider `CO[C@@H]1CN(C)C(=O)c2ccc(NC(=O)Nc3cccc(F)c3)cc2OC[C@@H](C)N(C(=O)Nc2cccc(F)c2)C[C@H]1C`, for which the cytotoxicity call in experiment [1] is “inactive”. Moreover, the growth inhibition call in experiment [2] was “inactive”.

As for `Cc1noc(C)c1S(=O)(=O)Nc1cccc2c1O[C@@H](CN(C)Cc1ccncc1)[C@@H](C)CN([C@@H](C)CO)C2=O`, the cytotoxicity call in experiment [1] is “inactive”. In experiment [2], the growth inhibition call was “inactive”.

With `Cc1noc(C)c1S(=O)(=O)Nc1ccc2c(c1)C(=O)N([C@@H](C)CO)C[C@@H](C)[C@@H](CN(C)S(=O)(=O)c1ccccc1)O2`, the cytotoxicity call in experiment [1] was “inactive”. The growth inhibition call in experiment [2] was “inactive”.

With `Cc1noc(C)c1NC(=O)N(C)C[C@@H]1Oc2ccc(NC(=O)CCN3CCOCC3)cc2C(=O)N([C@@H](C)CO)C[C@H]1C`, in experiment [1], the cytotoxicity call is “inactive”. For the same molecule, in experiment [2], the growth inhibition call is “inactive”.

As to `COc1ccc(NC(=O)N(C)C[C@@H]2Oc3ccc(NC(=O)CCCCCC(=O)Nc4ccccc4N)cc3CC(=O)N([C@@H](C)CO)C[C@@H]2C)cc1`, the cytotoxicity call in experiment [1] is “inactive”. The growth inhibition call in experiment [2] was “inactive”.

On to `COc1ccccc1CN1C(=O)c2ccccc2[C@@]2(Cc3ccccc3N(Cc3ccccc3)C2=O)[C@@H]1c1ccc(CO)cc1`, for which the cytotoxicity call in experiment [1] was “inactive”. In addition, in experiment [2], the growth inhibition call was “inactive”.

For the molecule `COc1ccc(NC(=O)N(C)C[C@H]2OCCCC[C@H](C)Oc3ccc(NS(=O)(=O)c4ccc(Cl)cc4)cc3C(=O)N([C@@H](C)CO)C[C@@H]2C)cc1`, the cytotoxicity call in experiment [1] was “inactive”. In addition, in experiment [2], the growth inhibition call was “inactive”.

For the molecule `CC(C)C[C@@H]1NC(=O)[C@@H](C(C)C)NC(=O)[C@@H]2CCCN2C(=O)[C@@H](CC(=O)O)NC(=O)[C@@H](Cc2c[nH]c3ccccc23)NC1=O`, the cytotoxicity call in experiment [1] is “inactive”. For the same molecule, in experiment [2], the growth inhibition call was “inactive”.

For `C[C@@H]1CN([C@H](C)CO)C(=O)c2cc(NS(=O)(=O)c3ccc(F)cc3)ccc2O[C@@H](C)CCCCO[C@H]1CN(C)S(=O)(=O)c1ccc(Cl)cc1`, the cytotoxicity call in experiment [1] was “inactive”. The growth inhibition call in experiment [2] is “inactive”.

For `COc1ccc(NC(=O)Nc2ccc3c(c2)[C@@H]2C[C@H](CC(=O)NCc4ccccn4)O[C@H](CO)[C@@H]2O3)cc1`, the cytotoxicity call in experiment [1] is “inactive”. The growth inhibition call in experiment [2] is “inactive”.

`CN(CCO)c1ccccn1`: in experiment [1], the cytotoxicity call was “inactive”. For the same molecule, in experiment [2], the growth inhibition call was “inactive”.

`Cc1noc(C)c1S(=O)(=O)Nc1ccc2c(c1)C(=O)N([C@H](C)CO)C[C@@H](C)[C@H](CN(C)CC1CCCCC1)OCCCC[C@@H](C)O2`: the cytotoxicity call in experiment [1] is “inactive”. The growth inhibition call in experiment [2] is “inactive”.

Consider `C[C@H](CO)N1C[C@H](C)[C@@H](CN(C)CC2CCCCC2)Oc2ccc(NC(=O)Nc3ccccc3)cc2C1=O`, for which the cytotoxicity call in experiment [1] is “inactive”. Further, the growth inhibition call in experiment [2] was “inactive”.

As for `Cc1ccc(S(=O)(=O)Nc2ccc3c(c2)C(=O)N([C@H](C)CO)C[C@H](C)[C@H](CN(C)S(=O)(=O)c2ccc(Cl)cc2)OCCCC[C@H](C)O3)cc1`, the cytotoxicity call in experiment [1] was “inactive”. Besides, the growth inhibition call in experiment [2] is “inactive”.

With `COc1ccc([Si](C)(C)[C@H]2[C@H](CC(=O)N3CCC[C@H]3CO)O[C@@]3(C(=O)N(Cc4ccc(N5C(=O)c6cccc7cccc5c67)cc4)c4ccccc43)[C@@H]2C)cc1`, the cytotoxicity call in experiment [1] is “inactive”. In addition, in experiment [2], the growth inhibition call was “inactive”.

For the molecule `C[C@H]1CN([C@@H](C)CO)C(=O)Cc2cc(NC(=O)CCN3CCOCC3)ccc2O[C@@H]1CN(C)S(=O)(=O)c1ccc(Cl)cc1`, in experiment [1], the cytotoxicity call was “inactive”. The growth inhibition call in experiment [2] was “inactive”.

The values above are taken from the antibiotic and cytotoxicity screens of Wong et al. (2023).
